# In all, about 33,000 sequences were measured (“E-score (-0.5 to 0.5)”: median about -0.016, highest 2% from about 0.32 on). This is one part of the list.
# Target: T1, Stp1 (UniProt B3LFK1)
# T1 sequence: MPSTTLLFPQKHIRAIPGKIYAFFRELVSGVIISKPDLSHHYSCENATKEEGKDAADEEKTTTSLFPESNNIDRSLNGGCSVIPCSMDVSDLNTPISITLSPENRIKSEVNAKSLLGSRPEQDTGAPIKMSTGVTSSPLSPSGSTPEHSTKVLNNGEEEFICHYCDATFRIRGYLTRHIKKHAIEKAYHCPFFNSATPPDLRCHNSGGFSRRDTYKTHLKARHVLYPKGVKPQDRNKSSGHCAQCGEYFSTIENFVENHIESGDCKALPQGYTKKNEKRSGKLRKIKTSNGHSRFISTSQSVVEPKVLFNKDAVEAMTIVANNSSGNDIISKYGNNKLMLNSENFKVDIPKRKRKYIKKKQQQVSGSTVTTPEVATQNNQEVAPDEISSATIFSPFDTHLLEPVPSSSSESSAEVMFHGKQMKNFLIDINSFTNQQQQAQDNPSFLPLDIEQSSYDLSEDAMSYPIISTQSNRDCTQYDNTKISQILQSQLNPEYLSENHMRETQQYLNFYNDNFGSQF
# Assay: PBM E-score (8-mer binding enrichment) (E-score (-0.5 to 0.5)); higher = stronger / more preferred TF binding; most listed sequences are background and not binding sites
# Conditions: protein concentration: 200 nM; construct: GST-full length
# How it was run: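 Yeast transcription factors carrying a GST tag, as full-length proteins or DNA-binding domains, were produced by PURExpress in vitro transcription/translation. About 100-200 nM protein was applied to universal all-10-mer Agilent arrays, double-stranded by primer extension on fresh or once-stripped slides. Bound protein was detected with fluorescent anti-GST, and scans were normalised with masliner. The Universal PBM Analysis Suite gave each ungapped eight-base word, pooled with its reverse complement, an E-score, a modified Wilcoxon-Mann-Whitney statistic.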
row,Sequence,PBM E-score
1,CACTTATC,0.00597
2,CCACGTCC,-0.126
3,ACGACTTC,-0.0717
4,GGCGTACA,0.068
5,ATATTCAC,-0.00705
6,ACCTGTTG,-0.0536
7,GAGGCACC,0.239
8,CGGTTCTC,-0.0589
9,CCGCTACG,0.0752
10,AAGACGCG,0.0307
11,ACACAATG,0.0282
12,ACATCCGA,-0.0192
13,TAATGACA,-0.0122
14,CAAGGGGC,0.0683
15,ACGGACAA,0.142
16,AGCAAACT,0.1
17,AGTAACTG,-0.0431
18,CGTGTTGC,0.164
19,CGATCGCG,0.123
20,CAGCCTCA,-0.134
21,ACTTTTTC,-0.0491
22,AAAATAGC,-0.0678
23,GAGCTTCC,-0.0682
24,AACACGAC,-0.0456
25,GGTGTTAC,-0.147

row,Sequence,PBM E-score
1,CCACCTCA,-0.19
2,ACTTAGCA,-0.0458
3,AATCTCAA,0.0026
4,GCAGCGGA,-0.0607
5,AAGTGACA,0.141
6,GCACTCGC,0.165
7,GCTCCTCC,-0.216
8,CACCGCAA,0.0442
9,AGACAAAA,0.0567
10,ATGCTGGA,-0.104
11,TACCCATA,-0.16
12,GCTAGCAC,-0.181
13,CACAGGAA,0.0982
14,GCATTGAC,0.00015
15,ACAATCGG,0.0293
16,GGGTGTGA,-0.259
17,CCTCCGCA,-0.147
18,CATCCATA,-0.0113
19,AGGAGTAT,-0.216
20,CCGATAGC,-0.327
21,AGTAACGG,0.106
22,GGGATCAC,-0.188
23,CGGCCCTC,0.0219
24,CGCAGACC,-0.0697
25,ATCTTCTG,0.162

row,Sequence,PBM E-score
1,CCCGACGC,-0.122
2,AGATAGCC,-0.156
3,AACCCACA,0.0996
4,CCCGATCA,-0.255
5,CAGAATTC,-0.0463
6,CACAGTGG,-0.0956
7,GGACCGAC,-0.0686
8,AAGAAGAC,-0.0244
9,GGGATAGA,-0.148
10,GATGTGCC,0.185
11,GACCTGGC,-0.295
12,AACATGGA,0.0746
13,GATATTCA,-0.115
14,CTGCGGAA,-0.0491
15,AGCGCGAA,0.0676
16,AATTAGCT,-0.033
17,GCCCCCCC,-0.243
18,GACCAGCA,-0.139
19,AACACCGT,0.116
20,CTCTCACC,0.0376
21,CGACATCG,-0.174
22,GTTATCTA,-0.0892
23,ACAGCCCT,-0.145
24,TATTGACA,-0.0359
25,CCAGGTCC,-0.323

row,Sequence,PBM E-score
1,ACGGATAT,0.26
2,TCCTTGAA,-0.0462
3,AGGGTTCG,-0.173
4,ACGCATGC,0.181
5,CGATAGCG,-0.0295
6,ACTAAATA,0.199
7,CCAGCGGA,-0.282
8,AAGGCTTG,-0.0542
9,CAACGTAC,0.1
10,CCCTCTTA,-0.00958
11,GGATGTTA,0.0805
12,CTTGCAGA,-0.134
13,CTCGGAAA,-0.0195
14,CCAAATAC,-0.0319
15,ACAACACT,0.0433
16,ACGCCGTA,0.471
17,GCATAGGC,-0.113
18,CACATCCA,0.176
19,AACATAGC,-0.044
20,GTCGCGGA,-0.0678
21,CTATAATA,0.0295
22,AGGGGTAT,-0.345
23,CAAGCATA,-0.096
24,CAAGTTCA,0.00049
25,GATTATGA,0.108

row,Sequence,PBM E-score
1,CTGCAGAA,0.0969
2,CCGTTCGA,0.279
3,CGCGGCTC,0.464
4,GCTTCGGA,-0.0775
5,AGCTGGTG,-0.105
6,CATTTAGG,-0.116
7,ATACAGAA,0.196
8,CATGGCGG,0.101
9,CCGTGGCG,0.209
10,CCTTAAAG,0.0532
11,GAATTGTA,0.0648
12,CTTGCAAA,0.184
13,AGAAACAA,0.274
14,CATAACCC,-0.0547
15,AACCACGA,-0.0322
16,CAGATGCA,-0.293
17,ATAATCGC,0.137
18,GTTGGGTA,-0.109
19,CCCAAGGC,0.282
20,GGAGGCTA,-0.192
21,ACCGGTTA,0.018
22,ACATTAAG,0.034
23,CCCGCCGA,-0.0885
24,AATTTTAC,0.222
25,ACCACGGG,-0.0439

row,Sequence,PBM E-score
1,GTGTTATA,0.123
2,CCAAAAAG,-0.00139
3,AAAATCCT,-0.0486
4,ATGCCCGG,-0.208
5,CCTGGATA,-0.149
6,GATCGGCC,0.0645
7,CACTTTTC,0.0895
8,GTATGCAC,-0.0406
9,ACCTTTTA,-0.0684
10,CCGCCGCG,0.437
11,ATCCTTTG,0.0358
12,GATTGTGC,0.219
13,CCTGCCGC,0.226
14,TCGGTAAA,0.0119
15,TAAGTTAA,0.0595
16,ACATCGCG,-0.0486
17,CGTCAACG,-0.115
18,ACCAGCTC,-0.142
19,GCTGCCAC,0.0537
20,AAGGACAT,0.0391
21,GAAAAATA,0.159
22,AGTCTCCG,0.0695
23,AGATACTC,-0.134
24,ACTGACGA,-0.0286
25,ACAGGCCG,-0.0606

row,Sequence,PBM E-score
1,AGGAGCCA,-0.164
2,AACACTCA,0.0656
3,TGGTGGAA,-0.116
4,GCAGTGTA,0.142
5,GAGTACTC,-0.215
6,AACCAGTG,-0.174
7,CGAAGCAG,-0.149
8,ACAGCTGG,-0.193
9,TTCCTCAA,-0.0575
10,ACCAAAGT,-0.0235
11,GTAAAAGA,0.0346
12,GAACCTTC,-0.0367
13,GAAAGCGC,0.0424
14,ATGGCGTG,0.102
15,ATACCACG,0.113
16,AGATTCGC,0.0641
17,CACTGCAG,-0.0936
18,CCTAGACG,-0.0382
19,CTAATTTA,0.256
20,CACTTTAA,-0.0213
21,CGTGTACA,0.122
22,CAATCTAG,0.0836

# Source: the supplement of paper PMC3334620
